# PubChem BioAssay AID1346428 (National Center for Advancing Translational Sciences (NCATS), 2018)
# Where “and” joins values, the source holds several entries; their conditions need not be identical. Identical values can stand only once. The campaign covered roughly 48,000 compounds. About 1,200 (2.5%) were called active. Not shown: some 2% with an inconclusive outcome.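 How the source made its calls: active means activation of at least 60% and not above a set upper limit (about 1 call in 100 departs from these limits); inconclusive means activation of 40% to 60%, or above that upper limit; inactive means activation under 40%.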 This is one part of the list.
# Biological target: Probable G-protein coupled receptor 32 (Homo sapiens) (UniProt O75388)
# Assay: qHTS for Agonists of Human Resolvin D1 Receptor DRV1
# Conditions: CHO-K1 GPR32 beta-arrestin PathHunter luminescence, 90 min; at 76.9 µM; active compounds read high; zero percent set by DMSO-only wells
# Procedure, shortened: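 PathHunter enzyme-fragment complementation, CHO-K1 GPR32 stable line; 2,500 cells/well, overnight attach; cpd 90 min 37 °C 5% CO2; detection reagent 1 h RT; chemiluminescence. DMSO = EC0.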
# Sequence of UniProt O75388 (O75388 whole entry, looked up): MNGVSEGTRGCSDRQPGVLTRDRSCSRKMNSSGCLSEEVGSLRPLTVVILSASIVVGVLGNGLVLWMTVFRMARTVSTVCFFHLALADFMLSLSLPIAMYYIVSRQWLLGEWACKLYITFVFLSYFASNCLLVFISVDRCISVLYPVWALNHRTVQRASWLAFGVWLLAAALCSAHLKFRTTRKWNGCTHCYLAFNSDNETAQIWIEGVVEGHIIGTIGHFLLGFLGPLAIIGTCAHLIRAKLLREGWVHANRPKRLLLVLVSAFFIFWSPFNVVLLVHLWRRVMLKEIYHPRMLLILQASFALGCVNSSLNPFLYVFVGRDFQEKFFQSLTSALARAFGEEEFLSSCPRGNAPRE
row,SMILES,activation
1,COc1ccc(-c2c(C)c3ccc(O)c(CN4CCN(CCO)CC4)c3oc2=O)cc1OC,inactive: -1.94%
2,O=C(NCc1cccc(F)c1)c1ccc(NC(=O)c2nsc3ccccc23)cc1,inactive: -12.1%
3,CCCCS(=O)(=O)c1oc(-c2ccc(F)cc2)nc1S(=O)(=O)c1ccc(C)cc1,inactive: 12.7%
4,COc1ccc(C)cc1NC(=O)Nc1cccc(-c2noc(C)n2)c1,inactive: -4.37%
5,CCc1ccc(NC(=O)Cn2c(=O)n(CCC(=O)NCCc3ccc(Cl)cc3)c(=O)c3ccccc32)cc1,inactive: 0.616%
6,Cc1noc(/C=C/c2ccccc2F)c1S(=O)(=O)N1CCC(C(=O)N2CCOc3ccccc32)CC1,inactive: -3.06%
7,COc1ccc(C(=O)Nc2nc(-c3nnn(-c4ccc(C(C)C)cc4)c3C)ns2)cc1,inactive: 4.64%
8,COc1ccccc1CCNC(=O)C(C)Sc1nc(-c2ccccc2)cc(C(F)(F)F)n1 (stereo not given),inactive: 3.74%
9,Cc1ccc(-c2cc(-c3ccccc3)c(C#N)c(SCC(O)CS(=O)(=O)Cc3ccccc3)n2)cc1 (stereo not given),inactive: -7.78%
10,COc1ccc(F)cc1S(=O)(=O)Nc1cccc(-c2ccc(N3CCC(C)CC3)nn2)c1,inactive: -5.79%
11,O=C(Cn1ncn2c(cc3ccccc32)c1=O)NCc1ccc(F)cc1,inactive: 8.48%
12,CCCOc1ccc(CNC(=O)c2[nH]c3cc(OC)ccc3c2Sc2ccccc2)cc1,inactive: -9.33%
13,CC(=O)Nc1ccc(N(C(=O)Cn2nnc3ccccc32)C(C(=O)NCc2ccccc2)c2ccc(C)cc2)cc1 (stereo not given),inactive: -25.7%
14,COc1ccc(CCNC(=O)c2c(C)oc3ncn(C)c(=O)c23)c(OC)c1,inactive: -9.82%
15,CCN(C(=O)CSc1nc2ccccc2n1Cc1ccc(F)cc1Cl)c1ccccc1,inactive: -12.7%
16,O=C1C(c2ccc(F)cc2)N(CCc2ccccc2)C(=O)CN1C1CCCCCC1 (stereo not given),inactive: -4.43%
17,Cc1ccc2[nH]c(=O)c3cc(C(=O)NCCCN4CCC(C)CC4)sc3c2c1,inactive: -2.84%
18,CCOC(=O)c1c(C)[nH]c(C)c1S(=O)(=O)N1CCC(C(=O)NCc2ccccc2Cl)CC1,inactive: 5.98%
19,COc1ccc(C)cc1N(C)C(=O)CCc1nc(-c2ccccc2F)no1,inactive: -6.05%
20,Cc1ccc(Cl)cc1NC(=O)CN1C(=O)CCc2ccccc21,inactive: -5.15%
21,CCCCNc1oc(-c2ccc(COc3ccc(OC)cc3)o2)nc1C#N,inactive: -12.1%
22,CCOC(=O)C(Cc1c[nH]c2ccccc12)NC(=O)COc1ccc(CC)cc1 (stereo not given),inactive: 0.694%

row,SMILES,activation
1,Cc1cc(NC(=O)CN2CCC(C)CC2)nc2c1c(=O)oc1ccccc12,inactive: -10.6%
2,COc1ccc(CC(=O)NCc2nc3cccnc3n2Cc2ccccc2)cc1,inactive: -15.7%
3,COC(=O)c1ccccc1NC(=O)CCCn1c(=O)c2cccn2c2cccnc21,inactive: 2.9%
4,CN(C)c1ccc(Nc2ncnc3sc4c(c23)CCCC4)cc1,inactive: 3.57%
5,CCc1cccc(C)c1NC(=O)Cn1nc(C)c2nn(-c3ccc(Cl)cc3)c(C)c2c1=O,inactive: -16.5%
6,COc1ccc(/C=C/C(=O)Nc2ccc3nc(N4CCC(C)CC4)cc(C)c3c2)cc1,inactive: 24.3%
7,CCCCCCCCCCCCCCCC[n+]1ccccc1,inactive: 12.3%
8,CCC1Oc2ccc(Cl)cc2N(CC(=O)NCCc2ccc(Cl)cc2)C1=O (stereo not given),inactive: 7.44%
9,CCCN1Cc2cccc(C(=O)Nc3cccc(C(=O)OCC)c3)c2C1=O,inactive: -5.04%
10,COc1ccccc1C(=O)Nc1ccc2oc(-c3cccc4c(Br)cccc34)nc2c1,inactive: -4.06%
11,COc1ccc2c(c1)cc1c(=O)n(CC(=O)NC3CC3)nc(C)n12,inactive: -0.977%
12,CCN(c1ccccc1)S(=O)(=O)c1c(-c2ccc(C)cc2)csc1C(=O)OC,inactive: -29%
13,O=[N+]([O-])c1cc(-c2nc(-c3ccccc3)no2)ccc1NC1CCCCC1,inactive: -10.1%
14,O=C(Cc1csc2nc(-c3ccc(F)cc3)cn12)NCc1ccccc1,inactive: -9.84%
15,COc1ccccc1CNC(=O)CCn1c(=O)c2cccn2c2cccnc21,inactive: -0.687%
16,COc1ccc(C2c3cc(OC)c(OC)cc3CC(=O)N2c2ccc(C)c(F)c2)cc1 (stereo not given),inactive: -11.9%
17,C=Cc1ccc(Cn2c(C)c(CNCc3ccccc3C)c(C(=O)O)c2C)cc1,inactive: 26.5%
18,Cc1ccc(-c2nnc(Nc3ccc(C(=O)N(C)C)cc3)c3ccccc23)cc1S(=O)(=O)N(C)C,inactive: 15.9%
19,Cc1ccc(NC(=O)c2ccc3c(O)c(S(=O)(=O)c4ccccc4)c(=O)[nH]c3c2)cc1Cl,inactive: 0.0522%
20,O=C(Nc1nnc(S(=O)(=O)N2CCCCC2)s1)c1ccccc1Br,inactive: 19.7%
21,CCN(C(=O)CN1C(=O)COc2ccc(S(=O)(=O)N3CCOCC3)cc21)c1ccc(OC)cc1,inactive: -18.7%
22,O=C(COc1ccc(Cl)cc1)OCc1cc(=O)n2nc(C3CC3)sc2n1,inactive: -7.61%

row,SMILES,activation
1,CC(C)(C)CC(=O)NCC(c1ccc2c(c1)OCO2)N1CCOCC1 (stereo not given),inactive: -8.04%
2,O=C(Nc1cccc(F)c1)c1ccc2c(c1)N(Cc1ccccc1)C(=O)c1ccccc1S2(=O)=O,inactive: -14.1%
3,Cc1ccc(OCC(=O)Nc2ccccc2OCc2cc(=O)n3ccccc3n2)cc1C,inactive: -10.7%
4,Cc1cccc(NC(c2ccccc2F)c2ccc3ccc(C)nc3c2O)n1 (stereo not given),inactive: -22.3%
5,COc1ccc(-c2nc3ccccc3s2)cc1NC(=O)c1ccc(F)cc1,inactive: 1.5%
6,CN1[C@@H]2CC[C@H]1CC(NC(=O)n1c(=O)[nH]c3ccccc31)C2 (stereo not given in full),inactive: -6.51%
7,COC(=O)c1ccccc1NC(=O)C1CCN(C(=O)N2CC(C)Oc3ccccc32)CC1 (stereo not given),inactive: -7.73%
8,COc1ccc(C(=O)NCC(c2ccc(N(C)C)cc2)N2CCc3ccccc32)cc1OC (stereo not given),inactive: -34.7%
9,N[C@@H](C(=O)N[C@@H]1C(=O)N2C(C(=O)O)=C(Cl)CS[C@H]12)c1ccccc1,inactive: -44.6%
10,CC(C)(C)c1ccc(C(=O)Nc2onc3c2CCCC3)cc1,active: 88.2%
11,O=C(Nc1ncc([N+](=O)[O-])s1)c1cccs1,inactive: -39.7%
12,COc1ccc(OC)c(S(=O)(=O)Nc2cccc(-c3ccc(N4CCCCC4)nn3)c2)c1,inactive: 9.71%
13,Cc1ccc(C)c(N2CCN(C(=O)CSCc3ccccc3Cl)CC2)c1,inactive: -31.2%
14,COc1cccc(NC(=O)CC2Nc3cc(C)c(C)cc3NC2=O)c1 (stereo not given),inactive: -24.2%
15,COc1ccc(C(=O)NCc2ccc(OCCN(C)C)cc2)cc1OC,inactive: -3.16%
16,Cc1cccc(NC(=O)CCS(=O)(=O)c2cc(Br)cc3c2N(C(=O)C2CC2)CC3)c1,inactive: -12.9%
17,Cc1ccc(CN(Cc2ccco2)C(=O)COc2ccc(C)c(C)c2)cc1,inactive: -13.2%
18,CC(C)(C)c1ccc(C(=O)NCC(c2ccc(Cl)cc2)N2CCOCC2)cc1 (stereo not given),inactive: -22.2%
19,CCc1ccc(S(=O)(=O)Nc2cccc(-c3ccc(N4CCOCC4)nn3)c2)cc1,inactive: 35.3%
20,Cc1ccc(CNC(=O)CC2Oc3ccc(Cl)cc3NC2=O)cc1 (stereo not given),inactive: -6.34%
21,CC(=O)c1cccc(NC(=O)CSc2nc3ccccc3nc2Cc2ccc(F)cc2)c1,inactive: -11.7%
22,CC(=O)Nc1ccccc1-c1nc2ccccc2n(CC(=O)Nc2cccc(C(F)(F)F)c2)c1=O,inactive: -26.3%

row,SMILES,activation
1,Cc1ccc(CO)cc1Nc1ncnc2onc(-c3ccc(F)cc3)c12,inactive: -7.07%
2,CCS(=O)(=O)N1CC(=O)N(c2ccc(Cl)cc2)C(C)(C(=O)NC2CCCCC2)C1 (stereo not given),inactive: -2.16%
3,CCOc1cccc2cc(S(=O)(=O)c3ccccc3F)c(=O)oc12,inactive: 5.22%
4,CCN(CC)C(=O)CSc1nc(-c2ccc(C)cc2)nc2c1Cc1c(CO)cnc(C)c1O2,inactive: 5.88%
5,COc1cccc(-c2nc(SCC(=O)NC3CCCC3)c(-c3ccc(C)cc3)[nH]2)c1,inactive: -25%
6,CC1=C(c2ccc(C(C)C)cc2)S(=O)(=O)N=C1N1CCC(C(=O)NCCc2ccco2)CC1,active: 63.9%
7,CC1=C(C(=O)Nc2ccc(F)cc2F)C2(CCN(C(C)C)CC2)OC1=O,inactive: 1.5%
8,CCCOc1cccc(C(=O)Nc2cc(-c3ccccc3)no2)c1,inactive: -4.81%
9,CCc1ccc(NC(=O)CN(c2cc(C)cc(C)c2)S(=O)(=O)c2c(C)[nH]c(=O)[nH]c2=O)cc1,active: 76.5%
10,COc1ccc(N2CC(NC(=O)c3ccc(S(=O)(=O)N4CCCCC4)cc3)CC2=O)cc1 (stereo not given),inactive: -11.8%
11,Cc1ccc(C(=O)Nc2c(C)nc3ccccn3c2=O)cc1C,inactive: -2.94%
12,CCOc1ccc(CNC(=O)c2ccc3c(c2)nc2n3CCOC2)cc1OC,inactive: -0.301%
13,CCc1cccc(NC(=O)C(Cc2ccccc2)n2cccc2)c1 (stereo not given),inactive: 14.9%
14,CC(C)NC[C@H](O)c1ccc(O)c(O)c1,inactive: 10.5% and inactive: -8.43%
15,CCOC(=O)c1ccc(-n2c(CCC(=O)O)ccc2-c2ccccc2)cc1,inactive: -30%
16,CC(=O)N1CCc2cc(Br)cc(S(=O)(=O)N3CCC(C(=O)Nc4ccc(C(C)C)cc4)CC3)c21,inactive: 6.47%
17,Cc1ccccc1OCC(=O)NCC(c1ccc(Cl)cc1)N1CCCCC1 (stereo not given),inactive: -28.3%
18,Cn1ncc2c(N3CCN(c4ccccc4F)CC3)ncnc21,inactive: 26.4%
19,COc1ccc(C)cc1NC(=O)Nc1cccc(OCc2cc(=O)n3ccc(C)cc3n2)c1,inactive: -8.8%
